Test results taken from PubChem BioAssay AID1259400 (National Center for Advancing Translational Sciences (NCATS), 2018).
Among all 350,000 compounds or so, about 2,100 (0.6%) were called active. This list was built around the results that the source calls inconclusive (neither active nor inactive); the mix of calls is not that of the screen.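 Rule for the calls: active = activity change of -60% or lower, but not beyond a set lower limit; inconclusive = change between -60% and -40%, or beyond the set limit; inactive = change above -40%.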
% is set by controls: 0 for no effect and ±100 for the full control effect.

Each molecule was assayed against Relaxin receptor 1 (Homo sapiens) (UniProt Q9HBX9) (assay: qHTS Assay for Antagonists of the Relaxin Receptor RXFP1). Settings: HEK293-RXFP1, relaxin-stimulated cAMP HTRF, 30 min; at 57.5 µM; hits give low values.
Chain of UniProt Q9HBX9 (Q9HBX9 whole entry, looked up): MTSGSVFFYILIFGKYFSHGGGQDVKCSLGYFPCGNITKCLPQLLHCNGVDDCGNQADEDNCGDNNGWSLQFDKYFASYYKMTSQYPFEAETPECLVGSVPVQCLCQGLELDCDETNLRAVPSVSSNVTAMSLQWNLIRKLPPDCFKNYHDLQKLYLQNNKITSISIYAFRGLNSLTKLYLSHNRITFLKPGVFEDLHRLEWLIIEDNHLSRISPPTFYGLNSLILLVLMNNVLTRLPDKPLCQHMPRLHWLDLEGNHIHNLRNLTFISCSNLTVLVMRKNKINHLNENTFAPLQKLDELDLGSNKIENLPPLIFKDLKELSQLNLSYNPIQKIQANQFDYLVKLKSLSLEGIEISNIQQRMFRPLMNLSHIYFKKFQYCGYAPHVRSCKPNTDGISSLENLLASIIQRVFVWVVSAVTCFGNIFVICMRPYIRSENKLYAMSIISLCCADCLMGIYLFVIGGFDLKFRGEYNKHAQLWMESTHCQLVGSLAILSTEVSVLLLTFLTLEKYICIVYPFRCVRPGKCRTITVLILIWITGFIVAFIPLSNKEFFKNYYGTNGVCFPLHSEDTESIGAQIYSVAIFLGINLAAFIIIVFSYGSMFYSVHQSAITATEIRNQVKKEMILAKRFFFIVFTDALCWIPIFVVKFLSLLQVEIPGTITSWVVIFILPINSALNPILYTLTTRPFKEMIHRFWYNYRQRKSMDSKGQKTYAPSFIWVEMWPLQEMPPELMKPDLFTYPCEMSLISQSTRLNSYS
Source text: The relaxin hormone is involved in the variety of biological functions in normal tissues and diseases. The role of relaxin is well-established in female reproduction and parturition, mammary gland and endometrial development, maintenance of myometrial quiescence during pregnancy. Relaxin signaling through its G protein-coupled receptor (GPCR) RXFP1 results in ECM remodeling through regulation of collagen deposition, cell invasiveness, proliferation and overall tissue homeostasis. […] Recombinant human relaxin (rhRlx) is currently being tested in clinical trials as a protective agent in congestive heart failure, in treating severe preeclampsia, and as an anti-fibrotic agent in various organs. […] Upon relaxin binding RXFP1 activation leads to the activation of adenylate cyclase (AC) via G?s. cAMP will activate PKA, which phosphorylates many signaling proteins. Thus, detection of cAMP increase is an easy and reliable indication of relaxin receptor activation. To screen for antagonists of the relaxin receptor, a HEK293T cell line stably transfected with RXFP1 was used. RXFP1 activation by relaxin in presence of various concentrations of tested compounds was assayed by changes in cAMP levels as detected with a time-resolved fluorescence energy transfer (TR-FRET) cAMP detection kit.
For the primary screening, we used HTRF(R) (Homogenous Time-Resolved Fluorescence) cAMP HiRange assay (Cisbio Bioassays, 62AM6PEJ). Presence of cAMP in the cell lysate disrupts binding between the Cryptate-labeled anti-cAMP and d2-labeled cAMP pair, leading to a decrease in TR-FRET signal. The libraries were screened at two doses (57microM and 11microM), followed by a confirmation of the hits at 7-point serial dilution in the range of final concentrations [57microM - 78nM]. Data were normalized to the controls for basal activity (buffer only) and 100% activity (5 nM porcine relaxin). The EC50 values were determined from concentration-response data modeled with the standard Hill equation. NCGC Assay Protocol Summary: HiHEK (Hawaiian HEK293 LGR7 stably transfected with human RXFP1) were grown in the following media: DMEM+10%FBS+Pen/Strep + Geneticin (1mg/ml). For the assay, the cells were seeded in DMEM+Pen/Strep (with no serum & selective antibiotics) at 2,100 cells/ 3microl/well with MultiDrop Combi dispenser (Thermo Scientific, Logan, UT) onto white tissue culture treated solid bottom1536-well plates (Greiner #789173-F) and allowed to attach/recover overnight at 37 degrees C, 5% CO2. Next, 23nl/well of compound solutions in DMSO were transferred into wells with a pintool (Kalypsis, San Diego, CA). […] EC80 (relaxin at 50pM final concentration) was dispensed to the rest of the plate except columns 1&2 which were used as a negative control (EC0, buffer only), 1microl/well also. The cells were stimulated by relaxin in the presence of compounds for 30 minutes at 37 degrees C, 5% CO2. The detection reagents were prepared individually by dilution in Lysis buffer (supplied with the assay kit) just prior to dispensing. 1microl/well of cAMP-d2 and 1microl/well anti-cAMP-Eu3+-Cryptate antibodies were added simultaneously with BioRAPTR FRDtrade mark Workstation (Beckman Coulter). The plates were incubated at ambient temperature for 30 minutes and, then, FRET signal was read on Envision plate reader (PerkinElmer, Waltham, MA), at wavelengths 340nm (excitation), 615nm & 665nm (emission of donor and acceptor channels respectively).
`Cc1ccc(Cn2nnc3c(=O)[nH]c(C4CCN(C(=O)Cc5ccccc5F)CC4)nc32)cc1` was tested, and the activity change, negative = inhibition was inconclusive: -40%.
`CCCS(=O)(=O)c1nc(S(=O)(=O)c2ccc(C)cc2)c(N2CCN(CC)CC2)s1` was tested, and the activity change, negative = inhibition was inactive: 33.8%.
In the case of `CN1CCCC(CC2Oc3ccccc3Sc3ccccc32)C1` (centres undefined), the activity change, negative = inhibition is reported as active: -81.4%.
`Cc1nc(N2CCN(Cc3ccc(Cl)cc3)CC2)c2oc3ccccc3c2n1` was tested, and the activity change, negative = inhibition was inconclusive: -41.9%.
With `Cc1nnc(NC(=O)CSc2nc3ccccc3o2)s1` the activity change, negative = inhibition was inactive: -7.86%.
For `CCn1c2ccccc2c2cc(NC(=O)CNC)ccc21`, the activity change, negative = inhibition was inconclusive: -54.5%.
With `CCN(CC)c1ccc(NC(=O)c2cccn2-c2nnc(N3CCCCC3)s2)c(C)c1` the activity change, negative = inhibition was active: -60.3%.
In the case of `CCN(CC)C(=O)C1CCCN(Cc2ccc3c(c2)OCO3)C1` (centres undefined), the activity change, negative = inhibition is reported as inactive: -0.356%.
In the case of `CCCCOc1c(C(=O)Nc2ccccc2)nnn1-c1ccccc1`, the activity change, negative = inhibition is reported as active: -87%.
For `COc1ccc(Cl)cc1C(=O)Nc1ccccc1N1CCN(C(=O)C(C)C)CC1`, the activity change, negative = inhibition was inactive: -0.362%.
In the case of `CC(C)N(C(=O)Cn1cc(SCC(=O)Nc2ccccc2F)c2ccccc21)C(C)C`, the activity change, negative = inhibition is reported as inactive: -25.8%.
`CCN(Cc1ccc(OC)c(F)c1)C(=O)c1cc2ccccc2o1` was tested, and the activity change, negative = inhibition was inconclusive: -52.1%.
For `CCN1C(=O)c2ccccc2S(=O)c2ccc(C(=O)NCc3ccc(OC)cc3)cc21` (centres undefined), the activity change, negative = inhibition was inconclusive: -44.5%.
`COc1ccc(NS(=O)(=O)c2cccc(C(=O)NCC(c3ccco3)N3CCCCC3)c2)cc1` (centres undefined) was tested, and the activity change, negative = inhibition was active: -73.4%.
For `CCc1ccc(OC(C)C(=O)N2CCC(c3nc4ccccc4o3)CC2)cc1` (centres undefined), the activity change, negative = inhibition was inconclusive: -48.6%.
With `Cc1cccc(C)c1OCCCn1c(CCNC(=O)C2CCCCC2)nc2ccccc21` the activity change, negative = inhibition was inconclusive: -43.3%.
With `CCn1nc(C(=O)Nc2nc(-c3ccccn3)cs2)c2ccccc2c1=O` the activity change, negative = inhibition was inactive: -6.25%.
`COc1ccc(NC(=O)C2CC(=O)N/C(=N/N=C/c3ccco3)S2)cc1` (centres undefined) was tested, and the activity change, negative = inhibition was inconclusive: -45.9%.
In the case of `C[n+]1c2n(c3ccccc31)N=C(c1cc(C(C)(C)C)c(O)c(C(C)(C)C)c1)CS2`, the activity change, negative = inhibition is reported as active: -85.5%.
For `Cc1ccc(C(OCC(O)CNC(C)c2ccccc2)c2ccccc2)cc1` (centres undefined), the activity change, negative = inhibition was active: -70.2%.
With `COc1cccc(C2/C(=C(\O)c3ccc4c(c3)OCCO4)C(=O)C(=O)N2c2nnc(C)s2)c1` (centres undefined) the activity change, negative = inhibition was inactive: 0.864%.
For `O=C(Nc1ccccc1NC(=O)c1ccccc1F)c1ccccc1F`, the activity change, negative = inhibition was inactive: 13.1%.
For `Cc1ccc(-n2ncc(C(=O)NCCN3CCCC3)c2C2CCN(C(=O)OC(C)(C)C)CC2)cc1C`, the activity change, negative = inhibition was inconclusive: -52.5%.
For `Cc1oc(-c2cccc(Cl)c2)nc1CN1CCCC(C(=O)NC(C)c2ccc3c(c2)OCCO3)C1` (centres undefined), the activity change, negative = inhibition was inconclusive: -51.9%.
With `CCc1nnc(NC(=O)CSc2nc(-c3ccccc3)cc(-c3ccc(F)cc3)c2C#N)s1` the activity change, negative = inhibition was inactive: 23.6%.
In the case of `CC12CCC(=O)N1C(C(=O)Nc1nc3ccc(Cl)cc3s1)CS2` (centres undefined), the activity change, negative = inhibition is reported as active: -60.4%.
`CC(C)c1ccc(Nc2ncnc3onc(-c4ccc(F)cc4)c23)cc1` was tested, and the activity change, negative = inhibition was inactive: -35.2%.
For `Cc1nc([N+](=O)[O-])c(Br)n1CC(=O)c1ccc2ccccc2c1`, the activity change, negative = inhibition was inconclusive: -44.1%.
In the case of `COc1cc(C)ccc1OCC(=O)OCC(=O)c1[nH]c(C)c(C(C)=O)c1C`, the activity change, negative = inhibition is reported as inactive: -32%.
For `COc1ccc(-n2cc(-c3ccc(Cl)cc3)[nH]c2=S)cc1`, the activity change, negative = inhibition was inconclusive: -45.3%.
`O=C(CCc1cn(Cc2ccc(F)cc2)c2ccccc12)NCCc1ccc(Cl)cc1` was tested, and the activity change, negative = inhibition was inactive: -2.6%.
`O=C(CCCCCn1c(=S)[nH]c2ccc(Br)cc2c1=O)NCC1CCCO1` (centres undefined) was tested, and the activity change, negative = inhibition was inconclusive: -49.7%.
In the case of `CN1CCN(C2=Cc3ccccc3Sc3cc(F)ccc32)CC1`, the activity change, negative = inhibition is reported as inconclusive: -49.6%.
For `O=C(CCC(=O)Nc1ccccc1)NNS(=O)(=O)c1ccccc1[N+](=O)[O-]`, the activity change, negative = inhibition was inconclusive: -43%.
For `CCOC(=O)c1c(CSC(=N)N)n(-c2ccccc2)c2cc(Br)c(OC(C)=O)cc12`, the activity change, negative = inhibition was active: -60.8%.
In the case of `CN(C)S(=O)(=O)c1cccc(NC(=O)C2CCN(S(=O)(=O)c3cccs3)CC2)c1`, the activity change, negative = inhibition is reported as inactive: 15.1%.
With `O=C(COc1ccc([N+](=O)[O-])cc1)Nc1ccc(NC(=O)c2ccccc2)cc1` the activity change, negative = inhibition was inactive: -7.48%.
For `Cc1cccc(C(C)C)c1NC(=O)Cc1ccc(S(=O)(=O)N2CCOCC2)s1`, the activity change, negative = inhibition was inactive: -4.75%.
For `N#Cc1c(-c2ccccc2)c(-c2ccccc2)nn(CC(=O)NNC(=O)Nc2ccc(Cl)c(Cl)c2)c1=O`, the activity change, negative = inhibition was inconclusive: -47.6%.
In the case of `O=C(Cc1ccccc1)N(Cc1cccnc1)c1nc2c(F)cc(F)cc2s1`, the activity change, negative = inhibition is reported as inconclusive: -40.1%.
`CC(=O)Nc1c(Cl)cc(Cl)c2c1Cc1cc(Cl)ccc1-2` was tested, and the activity change, negative = inhibition was active: -101%.
In the case of `COc1ccccc1NC1CCCCC1NS(=O)(=O)c1ccc(C)cc1` (centres undefined), the activity change, negative = inhibition is reported as inconclusive: -43%.
`Cc1ccc(OCCSc2nc(NC(C)C)nc(NC(C)C)n2)cc1` was tested, and the activity change, negative = inhibition was inactive: -35.7%.
`CC(=O)c1cccc(OCc2cc(C(=O)N3CCC(N4CCCCC4)CC3)no2)c1` was tested, and the activity change, negative = inhibition was active: -81%.
